Test [1] relates to sedge, umbrella (small-flower umbrella sedge, Cyperus difformis). Description: Test B1 flooded paddy test, sedge, umbrella. In kind it is in vivo. The conditions noted are these: 250 g ai/ha, Flood, applied to paddy water, 2-leaf stage, visually evaluated after 10 to 14 days. The text has this:
A dash (-) response means no test result.

Test [2] concerns barnyardgrass (Echinochloa crus-galli). In words: Test B flooded paddy test, barnyardgrass. The conditions noted are these: Flood, 250 g ai/ha; visual rating after 13 to 15 days; scale of 0 to 100 where 0 is no effect and 100 is complete control.
Test [3] relates to ducksalad (Heteranthera limosa). In words: Test B flooded paddy test, ducksalad. The conditions noted are these: Flood, 250 g ai/ha; visual rating after 13 to 15 days; scale of 0 to 100 where 0 is no effect and 100 is complete control.
The test system of another test is rice (Oryza sativa). Description: Test B flooded paddy test, rice. To be noted: Flood, 250 g ai/ha; visual rating after 13 to 15 days; scale of 0 to 100 where 0 is no effect and 100 is complete control.
Test [4] has as its system sedge, umbrella (small-flower umbrella sedge, Cyperus difformis). Description: Test B flooded paddy test, sedge, umbrella. To be noted: Flood, 250 g ai/ha; visual rating after 13 to 15 days; scale of 0 to 100 where 0 is no effect and 100 is complete control.

For the compound `Cc1c(C(=O)N2C[C@@H](C)O[C@H](C)C2)cc(N(COC(=O)C(C)(C)C)S(=O)(=O)C(F)(F)F)c(C)c1C` (relative stereo) [Compound 373], in test [1], the “Plant response rating, Sedge, Umbrella (0 to 100 scale, 0 is no effect, 100 is complete control)” value is reported as 95.
Same read-out and setting: the value for `CCOC(=O)N(c1cc(C(=O)N2C[C@@H](C)O[C@H](C)C2)c(C)c(C)c1C)S(=O)(=O)C(F)(F)F` (relative stereo) [Compound 374] was 95; that for `Cc1cc(C)c(N(COC(=O)C(C)(C)C)S(=O)(=O)C(F)(F)F)cc1C1=NOC2CCCCCC12` (single isomer, unassigned) [Compound 294] was 95.
On to `Cc1cc(Cl)c(C(=O)N(C)C)cc1NS(=O)(=O)C(F)(F)F` [Compound 251], for which the “Plant response rating, Barnyardgrass” value in test [2] was determined as 10. Further, the “Plant response rating, Ducksalad” value in test [3] is listed as 75. Besides, the “Plant response rating, Rice” value in the test with rice (Oryza sativa) is given as 10. Further, the “Plant response rating, Sedge, Umbrella” value in test [4] is on record as 85.
Regarding `Cc1cc(Cl)c(C(=O)N2CCCCC2)cc1NS(=O)(=O)C(F)(F)F` [Compound 252], the “Plant response rating, Barnyardgrass” value in test [2] is 10. Besides, the “Plant response rating, Ducksalad” value in test [3] is 85. Moreover, the “Plant response rating, Rice” value in the test with rice (Oryza sativa) was determined as 0. Moreover, the “Plant response rating, Sedge, Umbrella” value in test [4] is 95.
Taken in the same sequence, the figures for `Cc1cc(Cl)c(C(=O)N2CCCCC2)cc1N(S(=O)(=O)C(F)(F)F)S(=O)(=O)C(F)(F)F` [Compound 253] were 0, 75, 0 and 98.
Taken in the same sequence, the figures for `Cc1cc(Cl)c(C(=O)N(C)C)cc1N(S(=O)(=O)C(F)(F)F)S(=O)(=O)C(F)(F)F` [Compound 256] were 0, 60, 0 and 95.
The matching figures for `COc1cc(Cl)c(NS(=O)(=O)C(F)(F)F)cc1C(=O)N1CCOCC1` [Compound 258]: 0, 65, 0 and 95.
Take `Cc1ccc(C(=O)N2CCCCC2)cc1NS(=O)(=O)C(F)(F)F` [Compound 259]: the “Plant response rating, Barnyardgrass” value in test [2] is 0. Besides, in test [3], the “Plant response rating, Ducksalad” value amounted to 30. The “Plant response rating, Rice” value with rice (Oryza sativa) stood at 0. Further, the “Plant response rating, Sedge, Umbrella” value in test [4] stood at 25.
Take `Cc1cc(C)c(C(=O)N2CCC(C)CC2)cc1NS(=O)(=O)C(F)(F)F` [Compound 264]: the “Plant response rating, Barnyardgrass” value in test [2] came to 0. Moreover, the “Plant response rating, Ducksalad” value in test [3] is given as 85. The “Plant response rating, Rice” value with rice (Oryza sativa) was determined as 0. Moreover, the “Plant response rating, Sedge, Umbrella” value in test [4] is reported as 90.
Take `CC(=O)N(c1cc(N2CCC3(CCCCC3)C2=O)c(C)cc1C)S(=O)(=O)C(F)(F)F` [Compound 265]: the “Plant response rating, Barnyardgrass” value in test [2] is 25. Further, in test [3], the “Plant response rating, Ducksalad” value amounted to 70. Moreover, the “Plant response rating, Rice” value with rice (Oryza sativa) stood at 0. Further, the “Plant response rating, Sedge, Umbrella” value in test [4] stood at 75.
The matching figures for `COC(=O)N(c1cc(N2CCC3(CCCCC3)C2=O)c(C)cc1C)S(=O)(=O)C(F)(F)F` [Compound 266]: 0, 0, 0 and 0.
The matching figures for `Cc1cc(C)c(N(S(=O)(=O)C(F)(F)F)S(=O)(=O)C(F)(F)F)cc1N1CC2(CCCCC2)OC1=O` [Compound 269]: 0, 85, 0 and 95.
The matching figures for `Cc1cc(C)c(N2CCC3(CCCC3)C2=O)cc1NS(=O)(=O)C(F)(F)F` [Compound 270]: 25, 45, 0 and 90.
With `Cc1cc(C)c(N(S(=O)(=O)C(F)(F)F)S(=O)(=O)C(F)(F)F)cc1C(=O)N1CCCOCC1` [Compound 276], the “Plant response rating, Barnyardgrass” value in test [2] was 15. For the same compound, the “Plant response rating, Ducksalad” value in test [3] was 55. For the same compound, the “Plant response rating, Rice” value with rice (Oryza sativa) worked out at 15. The “Plant response rating, Sedge, Umbrella” value in test [4] amounted to 85.
For the compound `Cc1cc(C)c(C2=NOC3(CCCCCC3)C2)cc1NS(=O)(=O)C(F)(F)F` [Compound 277], the “Plant response rating, Barnyardgrass” value in test [2] was determined as 25. For the same compound, in test [3], the “Plant response rating, Ducksalad” value came out at 45. In addition, in the test with rice (Oryza sativa), the “Plant response rating, Rice” value was found to be 25. Also, in test [4], the “Plant response rating, Sedge, Umbrella” value is 90.
Regarding `Cc1cc(C)c(N2CC3(CCCCC3)OC2=O)cc1NS(=O)(=O)C(F)(F)F` [Compound 279], in test [2], the “Plant response rating, Barnyardgrass” value worked out at 0. Also, the “Plant response rating, Ducksalad” value in test [3] stood at 0. In addition, the “Plant response rating, Rice” value with rice (Oryza sativa) was determined as 0. The “Plant response rating, Sedge, Umbrella” value in test [4] worked out at 0.
In the case of `Cc1cc(C)c(N(S(=O)(=O)C(F)(F)F)S(=O)(=O)C(F)(F)F)cc1N1CCC2(CCCC2)C1=O` [Compound 280], the “Plant response rating, Barnyardgrass” value in test [2] stood at 95. In addition, the “Plant response rating, Ducksalad” value in test [3] came out at 35. In addition, the “Plant response rating, Rice” value with rice (Oryza sativa) came to 0. Besides, the “Plant response rating, Sedge, Umbrella” value in test [4] came out at 95.
On to `Cc1cc(C)c(-n2nccc(C)c2=O)cc1NS(=O)(=O)C(F)(F)F` [Compound 281], for which the “Plant response rating, Sedge, Umbrella (0 to 100 scale, 0 is no effect, 100 is complete control)” value in test [1] was determined as 0.
As to `COc1cnn(-c2cc(NS(=O)(=O)C(F)(F)F)c(C)cc2C)c(=O)c1OC` [Compound 282], the “Plant response rating, Sedge, Umbrella (0 to 100 scale, 0 is no effect, 100 is complete control)” value in test [1] worked out at 0.
On the same count and under the same terms, next, `Cc1c(NS(=O)(=O)C(F)(F)F)cc(C(=O)N2CCSCC2)c(C)c1C` [Compound 283]: 80.
Same read-out and setting: the value for `Cc1c(C(=O)N2CCSCC2)cc(N(COC(=O)C(C)(C)C)S(=O)(=O)C(F)(F)F)c(C)c1C` [Compound 285] was 75; that for `CCOC(=O)N(c1cc(C(=O)N2CCSCC2)c(C)c(C)c1C)S(=O)(=O)C(F)(F)F` [Compound 286] was 70; that for `Cc1c(NS(=O)(=O)C(F)(F)F)cc(C(=O)N(C)C)c(C)c1Cl` [Compound 287] was 90.
Consider `Cc1c(NS(=O)(=O)C(F)(F)F)cc(C(=O)N(C)C)c(C)c1C` [Compound 288], for which the “Plant response rating, Sedge, Umbrella (0 to 100 scale, 0 is no effect, 100 is complete control)” value in test [1] is recorded as 95.
The same measure, in the same setting: next, `Cc1c(NS(=O)(=O)C(F)(F)F)cc(C(=O)N2CCOCC2)c(C)c1C` [Compound 289, 1,1,1-Trifluoro-N-[2,3,4-trimethyl-5-(4-morpholinylcarbonyl)phenyl]methanesulfonamide]: 90; `Cc1c(NS(=O)(=O)C(F)(F)F)cc(C(=O)N2CCOCC2)c(C)c1Cl` [Compound 290]: 65.
On the same count and under the same terms, next, `Cc1cc(C)c(C2=NOC3CCCCCC23)cc1NS(=O)(=O)C(F)(F)F` (centres unmarked) [Compound 292]: 90; `Cc1cc(C)c(N(C(=O)OC(C)C)S(=O)(=O)C(F)(F)F)cc1C1=NOC2CCCC12` (centres unmarked) [Compound 295]: 90.
With `Cc1cc(C)c(N(S(=O)(=O)C(F)(F)F)S(=O)(=O)C(F)(F)F)cc1C1=NOC2COCC12` (centres unmarked) [Compound 296], the “Plant response rating, Sedge, Umbrella (0 to 100 scale, 0 is no effect, 100 is complete control)” value in test [1] was 85.
Same read-out and setting: the value for `Cc1cc(C)c(C2=NOC3COCC23)cc1NS(=O)(=O)C(F)(F)F` (centres unmarked) [Compound 297] was 95.
As to `Cc1cc(C)c(N(C(=O)OCC(C)C)S(=O)(=O)C(F)(F)F)cc1C1=NOC2CCCC12` (centres unmarked) [Compound 299], the “Plant response rating, Sedge, Umbrella (0 to 100 scale, 0 is no effect, 100 is complete control)” value in test [1] worked out at 95.
In the case of `Cc1cc(C)c(N(COC(=O)C(C)(C)C)S(=O)(=O)C(F)(F)F)cc1C1=NOC2COCC12` (centres unmarked) [Compound 301], the “Plant response rating, Sedge, Umbrella (0 to 100 scale, 0 is no effect, 100 is complete control)” value in test [1] was 95.
Consider `Cc1cc(Br)c(C2=NOC3CCCC23)cc1NS(=O)(=O)C(F)(F)F` (centres unmarked) [Compound 302], for which the “Plant response rating, Sedge, Umbrella (0 to 100 scale, 0 is no effect, 100 is complete control)” value in test [1] is listed as 75.
Still for that read-out and setting: next, `Cc1cc(F)c(NS(=O)(=O)C(F)(F)F)cc1C1=NOC2(CCCC2)C1` [Compound 303]: 0; `COc1cc(C)c(C2=NOC3(CCCC3)C2)cc1NS(=O)(=O)C(F)(F)F` [Compound 304]: 0.
On the same count and under the same terms, next, `CCc1cc(C)c(NS(=O)(=O)C(F)(F)F)cc1C1=NOC2CCCC12` (centres unmarked) [Compound 305]: 90.
Still for that read-out and setting: the value for `Cc1cc(C(F)(F)F)c(C2=NOC3CCCC23)cc1NS(=O)(=O)C(F)(F)F` (centres unmarked) [Compound 306] was 98.
As for `Cc1cc(C2CC2)c(C2=NOC3CCCC23)cc1NS(=O)(=O)C(F)(F)F` (centres unmarked) [Compound 307], the “Plant response rating, Sedge, Umbrella (0 to 100 scale, 0 is no effect, 100 is complete control)” value in test [1] amounted to 98.
On the same count and under the same terms, the value for `Cc1cc(C)c(N(COC(=O)C(C)C)S(=O)(=O)C(F)(F)F)cc1C1=NOC2CCCC12` (centres unmarked) [Compound 308] was 95; that for `Cc1cc(Br)c(NS(=O)(=O)C(F)(F)F)cc1C1=NOC2(CCCC2)C1` [Compound 309] was 75.

Values taken from US20230278972A1, “SUBSTITUTED HALOALKYL SULFONANILIDE HERBICIDES” (FMC Corporation, priority 2020, published 2023).
